Reference: PubChem BioAssay AID488969 (Vanderbilt High Throughput Screening Facility, 2010)
Over roughly 110,000 compounds, “z-score” has its median near -0.1; the highest 2% begin near 2. The list shows a part of the results.

Molecular target: Metabotropic glutamate receptor 8 (Rattus norvegicus) (UniProt P70579)
Assay: mGluR8 Gi/Go-coupled signaling modulation – cell-based, rat, thallium flux, HTS, primary screen (AID 488969)
Settings: HEK293 rat mGluR8, GIRK (G protein-gated inwardly rectifying potassium channel) thallium flux, FluoZin2; at 10 µM; stronger effect = higher value; submaximal glutamate (EC20) added with thallium

UniProt P70579, sequence (P70579 whole entry, looked up): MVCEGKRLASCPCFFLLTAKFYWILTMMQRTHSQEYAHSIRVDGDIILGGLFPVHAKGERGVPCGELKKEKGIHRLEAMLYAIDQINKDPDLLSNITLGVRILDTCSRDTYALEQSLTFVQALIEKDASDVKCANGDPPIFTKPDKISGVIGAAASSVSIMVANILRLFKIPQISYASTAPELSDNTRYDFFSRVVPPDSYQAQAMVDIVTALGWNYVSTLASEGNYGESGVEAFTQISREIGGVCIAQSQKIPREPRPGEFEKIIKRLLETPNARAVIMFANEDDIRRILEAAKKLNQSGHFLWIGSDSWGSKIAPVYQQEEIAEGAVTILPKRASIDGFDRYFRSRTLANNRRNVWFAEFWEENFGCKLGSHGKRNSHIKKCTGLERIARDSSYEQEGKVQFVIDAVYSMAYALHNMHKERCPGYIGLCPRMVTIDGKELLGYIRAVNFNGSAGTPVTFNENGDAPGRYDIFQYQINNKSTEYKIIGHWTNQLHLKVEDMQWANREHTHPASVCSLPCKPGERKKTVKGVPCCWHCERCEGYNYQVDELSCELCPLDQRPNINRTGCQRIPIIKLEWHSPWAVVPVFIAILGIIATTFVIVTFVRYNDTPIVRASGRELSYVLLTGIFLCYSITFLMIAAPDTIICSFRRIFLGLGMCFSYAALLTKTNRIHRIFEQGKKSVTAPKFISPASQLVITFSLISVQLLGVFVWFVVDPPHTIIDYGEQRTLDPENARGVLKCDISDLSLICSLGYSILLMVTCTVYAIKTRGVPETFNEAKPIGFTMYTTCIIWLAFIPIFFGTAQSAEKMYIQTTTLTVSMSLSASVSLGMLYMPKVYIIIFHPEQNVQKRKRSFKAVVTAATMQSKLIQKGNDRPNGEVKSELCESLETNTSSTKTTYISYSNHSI

SMILES	z-score
COc1cc2c(cc1OC)CN(Cc1cc(=O)oc3c(C)c(C)ccc13)CC2	-0.0606
CCOc1ccc(NC(=O)NCCN2C(C)CCCC2C)cc1 (centres undefined)	0.00245
O=C(NC(=S)N(Cc1ccccc1)c1ccccn1)C1CCCCC1	0.425
CC(NC(=O)CC(c1ccccc1)c1cc(Cl)ccc1O)c1ccccc1 (centres undefined)	-0.843
CCn1c(SCC(=O)Nc2cc(C)on2)nnc1-c1ccccc1	-0.0132
Cc1cc(C)c(NC(=O)C2CCCN2C)c(C)c1 (centres undefined)	-0.0987
CC1CCN(CCc2nc3cc(NC(=O)Nc4ccccc4)ccc3n2C)CC1	0.703
COC(=O)[C@H](Cc1ccccc1)NC(=O)NCCC1=CCCCC1	0.746
CCc1cc2ccc(C)cc2nc1SCC(=O)N1CCN(C(=O)c2ccco2)CC1	1.74
O=C(Nc1cccc(NC(=O)C2CC3CCCC(C2)C3=O)n1)C1CC2CCCC(C1)C2=O (centres undefined)	-0.142
CCN(CC)S(=O)(=O)c1ccc(-c2nnc(SCc3nnc(-c4ccccc4)o3)o2)cc1	-0.338
COc1ccc(C2(C(=O)O)CCCC2)cc1	-0.0964
COC(=O)C(C)Sc1n[nH]c(=S)s1 (centres undefined)	0.629
CC(C)c1ccc(NC(=O)C2CCN(S(C)(=O)=O)CC2)cc1	0.101
COc1ccc(-c2ccc(-c3noc(-c4ccccc4OC)n3)c(OC)n2)cc1	0.242
Cc1cc(OC(=O)c2ccco2)c2c(C)cc(=O)oc2c1	-0.119
COc1ccc(CN2CCOCC2)c(C)c1C	0.151
CCCCCCC(=O)Nc1ccc(Cl)cn1	-0.197
CC(C)=C1C2CCC1C1C(=O)N(NC(=O)COc3ccc(C(C)(C)C)cc3)C(=O)C21 (centres undefined)	0.854
O=C(Cn1nc(Cc2cccnc2)c2ccccc2c1=O)NCC1CCCO1 (centres undefined)	-0.128
O=C1OC(Cc2ccccn2)C(=O)C1=C1SCCS1 (centres undefined)	-0.296
COc1ccc(CN2CCN(C(=O)CN3C(=O)C4C5C=CC(C5)C4C3=O)CC2)c(OC)c1OC (centres undefined)	-0.242
O=C(COc1ccc(Cl)cc1Cl)NN=C1c2ccccc2-c2ccccc21	0.00874

SMILES	z-score
O=C(Nc1ncc(Cl)cn1)c1cccs1	0.0318
CCOc1cc(NC(=S)NCC2CCCO2)c(OCC)cc1NC(=O)c1ccc(OC)cc1 (centres undefined)	-0.0591
COc1cc([C@@H]2[C@H]3CNCC=C3C(C#N)=C(N)C2(C#N)C#N)ccc1OC(C)C	-1.4
O=S(=O)(NCCc1ccncc1)c1cc(Br)ccc1F	-0.0992
CCS(=O)(=O)NCC(c1cccnc1)N1CCN(c2ccccc2F)CC1 (centres undefined)	-0.0737
O=C(Nc1ccc2ccccc2c1)c1cnccn1	-0.0533
COc1ccccc1N1CCN(C(=O)CSc2ncccc2-c2nc3ccccc3[nH]2)CC1	-0.299
Cc1noc(/C=C/NCc2cccnc2)c1S(=O)(=O)N(C)CC(=O)N1CCc2ccccc21	-0.262
COc1ccc(C2NC3=C(CCC3)C3(C#N)C(OC)(OC)N=C(N)C23C#N)cc1 (centres undefined)	-0.179
c1ccc([C@H]2CC3C[C@@H](c4ccccc4)N2O3)cc1	-0.00514
CC(=O)Nc1ccc(S(=O)(=O)NC2(C(F)(F)F)NC(=O)N(C3CCCC3)C2=O)cc1 (centres undefined)	-0.127
O=C(CCNC(=O)c1ccc(Cl)cc1)Nc1ccc(Cl)cc1F	-0.0435
CCOC(=O)c1cnc(-n2nc(C)cc2C)nc1Nc1ccc(C)cc1	-0.102
CN(C)C(=O)c1cnc(Sc2ncc(C(F)(F)F)cc2Cl)n1C	0.0512
COc1cc(/C=C2\SC(=Nc3ccccc3)N(Cc3ccco3)C2=O)ccc1OC(C)C(=O)O (centres undefined)	-1.1
CC(=O)Nc1ccccc1C(=O)C(=O)Nc1cccc(C(=O)NC2CC2)c1	-0.155
C=CCNC(=S)NNC(=O)C(CCC(C)C)CC(C)(C)O (centres undefined)	-0.0486
CCCCNc1nc(CC(C)=O)ns1	0.435
CC1Cc2ccccc2N1C1=NS(=O)(=O)c2ccccc21 (centres undefined)	0.217
COc1ccc(NS(=O)(=O)c2cc(NC(=O)[C@@H](NC(=O)c3ccccc3)C(C)C)ccc2C)cc1	-0.302
CN(C)CC(=O)N1c2ccccc2CCc2ccc(NC(=O)c3ccc(N)cc3)cc21	0.311
COc1ccc(-c2nnn(CC(=O)Nc3sc4c(c3C#N)CCCC4)n2)cc1	0.36
C=CCn1c(SCC(=O)C(C)(C)C)nnc1-c1ccccn1	-0.555

SMILES	z-score
CCC(C)c1c(O)nc(SCc2ccccc2)[nH]c1=O (centres undefined)	0.256
Cc1cccc(N2CCN(C(=O)Cc3ccc(-n4c(=O)[nH]c5ccsc5c4=O)cc3)CC2C)c1 (centres undefined)	0.108
NNC(=O)C=C1CCN(c2ncc(C(F)(F)F)cc2Cl)CC1	0.00385
Cc1ccc(N2CC(C(=O)NCc3ccccn3)CC2=O)cc1 (centres undefined)	-0.442
CC1(C)CC(=O)c2cc(NC(=O)c3ccccc3)c(=O)oc2C1	0.164
COc1ccc(-c2cc(C(F)(F)F)c(C#N)c(SCC(=O)Nc3nc(C)co3)n2)cc1	-0.185
Nc1nnc(CSCc2ccc(Cl)cc2Cl)s1	-0.105
COc1ccc(C2C(C(=O)OCC(=O)N3CCCCC3)CCC(=O)N2c2ccc(OC)cc2)cc1 (centres undefined)	-0.185
CCC(c1nnnn1Cc1ccco1)N1CCN(c2cc(Cl)ccc2C)CC1 (centres undefined)	-0.242
COC(=O)C1CCN(C(=O)NC2CCCCC2)CC1	-0.11
O=C(CSc1nc2c(c(=O)n1-c1ccc(Br)cc1)SCC2)NCC1CCCO1 (centres undefined)	-0.367
Cc1cccc(Cn2c(N3CCCCC3C)nc3c2c(=O)[nH]c(=O)n3C)c1 (centres undefined)	0.156
Cc1ccccc1-c1nsc(SCC(=O)NCc2ccc3c(c2)OCO3)n1	-0.268
Cc1cc(N2CCN(C(=O)c3ccco3)CC2)n2nc(-c3cccc(F)c3)cc2n1	-0.927
CC(=O)c1cccc(N/C=C\C(=O)c2ccc(C)cc2)c1	-0.165
Cc1occc1C(=O)Nc1ccccc1NC(=O)c1ccoc1C	0.13
COc1ccc(C(=O)N/N=C2/SCC(=O)N2Cc2ccc3c(c2)OCO3)cc1OC	0.521
CC(C)C(=O)Nc1nnc(SCC(=O)Nc2ccc3c(c2)OCO3)s1	-0.107
CC(C)(C)c1ccc(OCC(=O)NCc2ccco2)cc1	-0.288
Cc1[nH]c2ccccc2c1/C=C/C(=O)c1ccccc1	0.793
CCOC(=O)Cn1nc(/C=C/c2ccc(C)cc2)ccc1=O	-0.0199
Cc1nn(Cc2ccc(Cl)cc2Cl)c(Cl)c1/C=C/C(=O)OCC(=O)NCC(F)(F)F	-0.136
Cc1ccc(S(=O)(=O)n2c(CN3CCCC(C)C3)nc3ccccc32)cc1 (centres undefined)	-0.131
